For 153 variants, enrichment ratio results are on record in a collection of fitness landscapes (doi:10.1126/science.1257360).

The list shows a part of the results. Where only a bound is given, the exact number is not on record here.

To fix the notation:
B1: PhoQ; a variant is named by its letters at X, in order, P23837 (parent)
chain: MKKLLRLFFPLSLRVRFLLATAAVVLVLSLAYGMVALIGYSVSFDKTTFRLLRGESNLFYTLAKWENNKLHVELPENIDKQSPTMTLIYDENGQLLWAQRDVPWLMKMIQPDWLKSNGFHEIEADVNDTSLLLSGDHSIQQQLQEVREDDDDAEMTHSVAVNVYPATSRMPKLTIVVVDTIPVELKSSYMVWSWFIYVLSANLLLVIPLLWVAAWWSLRPIEALAKEVRELEEHNRELLNPATTRELTSLVRNLNRLLKSERERYDKYRTTLTDLTHSLKTPLXXLQXXLRSLRSEKMSVSDAEPVMLEQISRISQQIGYYLHRASMRGGTLLSRELHPVAPLLDNLTSALNKVYQRKGVNISLDISPEISFVGEQNDFVEVMGNVLDNACKYCLEFVEISARQTDEHLYIVVEDDGPGIPLSKREVIFDRGQRVDTLRPGQGVGLAVAREITEQYEGKIVAGESMLGGARMEVIFGRQHSAPKDE

This test covers variants of B1. As to the kind of experiment: enrichment ratio after two sorts for PhoP signalling (ratio (wild type AVST 3.29)); higher = more functional. To be noted: with PhoP (E. coli).
Regarding WSFP, the enrichment ratio is at most 0.25.
Under ATFM stands at most 0.25; under KVGS, at most 0.25.
In the case of MKFI it was at most 0.25; in that of VDHS, at most 0.25; in that of GHDG, at most 0.25.
Under KPTL stands at most 0.25; under WSVN, at most 0.25.
On to ILTE, for which the enrichment ratio is at most 0.25.
In the case of CLGI it was at most 0.25.
In the case of FWWQ it was at most 0.25.
Turning to AHNQ, the enrichment ratio was at most 0.25.
In the case of SATE it was at most 0.25; in that of IDFK, at most 0.25; in that of TAWD, at most 0.25.
As for YSCR, the enrichment ratio was at most 0.25.
Consider GAEK, for which the enrichment ratio was at most 0.25.
Turning to DQHT, the enrichment ratio was at most 0.25.
Under VETS stands at most 0.25.
In the case of NTPY it was at most 0.25; in that of WNNH, at most 0.25; in that of YAIL, at most 0.25.
As for PSKI, the enrichment ratio was at most 0.25.
In the case of WTIW it was at most 0.25; in that of SGSV, 12.1.
RYWE: the enrichment ratio was at most 0.25.
In the case of RTFD it was at most 0.25; in that of KLSA, at most 0.25.
As to YPPD, the enrichment ratio was at most 0.25.
In the case of EPWW it was at most 0.25; in that of RVPA, at most 0.25.
Under GRFQ stands at most 0.25; under DIRI, at most 0.25; under TGTT, 11.2.
Under MEWV stands 7.18.
With TPDW, the enrichment ratio is at most 0.25.
Under LKTK stands at most 0.25; under MDES, at most 0.25.
In the case of VFAV it was at most 0.25; in that of VPSQ, at most 0.25.
As to HEDQ, the enrichment ratio is at most 0.25.
Under LFEP stands at most 0.25; under APCN, at most 0.25; under FHVG, at most 0.25.
In the case of GCVW, the enrichment ratio is at most 0.25.
Under RQAY stands at most 0.25.
Under IRKF stands at most 0.25.
Under RIQG stands at most 0.25.
Consider WCRK, for which the enrichment ratio was at most 0.25.
Consider MAPQ, for which the enrichment ratio was at most 0.25.
Under RYFD stands at most 0.25; under QFGR, at most 0.25.
Turning to VNKW, the enrichment ratio is at most 0.25.
Under KPNY stands at most 0.25; under LVQG, at most 0.25.
In the case of KAIV it was at most 0.25; in that of KLFI, at most 0.25.
In the case of ESTF it was at most 0.25; in that of HGEL, at most 0.25.
With RRRP, the enrichment ratio was at most 0.25.
In the case of ACNI, the enrichment ratio was at most 0.25.
Under WWWL stands at most 0.25; under FFPA, at most 0.25.
Regarding HRGF, the enrichment ratio is at most 0.25.
Under INVD stands at most 0.25.
In the case of LTQI it was at most 0.25; in that of AGCR, 1.84; in that of DEDI, at most 0.25.
Under RMTI stands at most 0.25; under AMMI, 15.
In the case of VPNF, the enrichment ratio worked out at 2.26.
In the case of TLRD it was at most 0.25.
Under LCGI stands at most 0.25.
Under FTSL stands at most 0.25; under MFQN, at most 0.25.
Take TTYL: the enrichment ratio turned out to be 11.1.
For HGGV, the enrichment ratio was at most 0.25.
In the case of ELSP it was at most 0.25; in that of WWNP, at most 0.25; in that of AGWN, at most 0.25.
Under MVWC stands at most 0.25; under TLWQ, at most 0.25; under YAVY, at most 0.25.
In the case of IPQI it was at most 0.25; in that of VMEL, at most 0.25.
Consider QHSS, for which the enrichment ratio was at most 0.25.
Under QASE stands 1.94; under KCDM, at most 0.25.
In the case of VMPN it was at most 0.25; in that of NKYC, at most 0.25; in that of LNYD, at most 0.25.
On to TGQC, for which the enrichment ratio is at most 0.25.
As for YILY, the enrichment ratio is at most 0.25.
In the case of WPPC it was at most 0.25; in that of PTHT, at most 0.25; in that of WKRP, at most 0.25.
Consider IDHK, for which the enrichment ratio was at most 0.25.
In the case of YSFW it was at most 0.25; in that of HSGF, 0.251; in that of SGYK, at most 0.25.
Under MFAR stands at most 0.25.
In the case of RIKT it was at most 0.25; in that of SWHG, at most 0.25; in that of IQPT, at most 0.25.
As to DHDG, the enrichment ratio is at most 0.25.
ARYS: the enrichment ratio is at most 0.25.
In the case of KWTH it was at most 0.25; in that of QIWD, at most 0.25.
Turning to LKVI, the enrichment ratio was at most 0.25.
In the case of FDCH it was at most 0.25; in that of TRCW, at most 0.25.
For MQVD, the enrichment ratio was at most 0.25.
Turning to LNFR, the enrichment ratio is at most 0.25.
In the case of NSMS it was at most 0.25; in that of IYWC, at most 0.25; in that of YWDP, at most 0.25.
In the case of GFNV it was at most 0.25; in that of AYFM, at most 0.25.
Under EPRQ stands at most 0.25; under HGAD, at most 0.25.
Consider SMSE, for which the enrichment ratio came out at 5.68.
Under EVFG stands at most 0.25.
In the case of LYLA it was at most 0.25.
In the case of MQAY it was at most 0.25; in that of FFSA, at most 0.25; in that of KSTG, at most 0.25.
With FPTC, the enrichment ratio is at most 0.25.
In the case of EIGP it was at most 0.25; in that of DTWV, at most 0.25; in that of RSGT, at most 0.25.
In the case of RNVC it was at most 0.25; in that of NRTP, at most 0.25.
For the variant IPTC, the enrichment ratio is at most 0.25.
Turning to LWLP, the enrichment ratio stood at 0.426.
In the case of LLHL it was at most 0.25; in that of DCVS, at most 0.25.
In the case of VAHT it was at most 0.25; in that of MHKA, at most 0.25; in that of PFTP, at most 0.25.
Under TGFA stands 1.36; under STCN, 8.56.
On to GHNL, for which the enrichment ratio is at most 0.25.
Turning to VCWT, the enrichment ratio is at most 0.25.
In the case of ALME it was 7.51.
Turning to ARRP, the enrichment ratio was at most 0.25.
For the variant YVVT, the enrichment ratio was at most 0.25.
On to PKRL, for which the enrichment ratio is at most 0.25.
Under FELQ stands 8.46; under THPI, at most 0.25.
For ICVV, the enrichment ratio is at most 0.25.
TSNQ: the enrichment ratio worked out at 9.86.
In the case of WHGN, the enrichment ratio was at most 0.25.
Under QKGH stands at most 0.25.
